The results in this text go back to ChEMBL document CHEMBL4888484, “Replenishing the malaria drug discovery pipeline: Screening and hit evaluation of the MMV Hit Generation Library 1 (HGL1) against asexual blood stage Plasmodium falciparum ,using a nano luciferase reporter read-out” (2022).

Screen size: about 150,000 compounds; about 540 (0.36%) showed an effect of 50% or more. The list shows a part of the results.

This test relates to Plasmodium falciparum. The test is described as follows: Primary screen in NF54 nanoGlo assay, in single point, at 2uM, 72h; a lower Z score goes with more inhibition. Type of test: functional, Erythrocyte. The settings on record: timepoint 72 hour.
In the case of `COc1cccc(CNC(=NC[C@H]2CCCO2)NC2CC2)c1`, the “% Inhibition” value is given as -10% and the Z score came out at 1.85.
Turning to `Cc1cnccc1NCCNC1CCN(c2ccc(Cl)cc2)CC1`, the “% Inhibition” value is 99% and the Z score is -17.94.
For `COC(=O)Nc1cccc(NCCCS(=O)(=O)c2ccc(C)cc2)c1`, in that order: 14% and -1.53.
The like results for `Cc1cc(NC2CCCC3OCCC23)nc(C2CC2)n1` (stereo unspecified) were, in that order, 18% and -2.05.
For `Cc1nc(-c2ccc(-c3nc4c([nH]3)CCCNC4=O)cc2)no1`, in that order: 4% and -0.4.
For `CCC1=NO[C@@H](CNC(=O)c2ccc(-c3ccc(NCCO)nn3)cc2)C1`, the “% Inhibition” value was -3% and the Z score came to 0.37.
With `O=C(NCC(=O)N1CCCC1)C1CCCC1`, the “% Inhibition” value is -13% and the Z score was 1.14.
The like results for `CC(C)c1cccc2c1CCN(C(=O)c1cnccn1)C2` were, in that order, 36% and -3.63.
The like results for `CC(C)(C)n1cc(CN2c3ccccc3C[C@@H]2CO)cn1` were, in that order, -7% and 1.28.
The like results for `CN(Cc1ccccn1)C(=O)c1cc(-c2ccc(Cl)c(Cl)c2)ns1` were, in that order, 0% and 0.02.
As for `CCOc1cc2cc(c1)C(=O)N(C)CC(=O)N[C@@H]1CN(Cc3ccc(C(=O)N(C)C)o3)CC[C@@H]1OCc1cccc(c1)O2`, the “% Inhibition” value worked out at 0% and the Z score was found to be 0.01.
The like results for `C[C@@H](C(=O)NCc1ccc(O)cc1O)N(C)C` were, in that order, 0% and 0.03.
The like results for `CC(C)Oc1ccccc1[C@H](C)NCc1nc(C2CC2)nn1C` were, in that order, 7% and -1.37.
The like results for `CCn1c(N)c(-c2nc3ccccc3[nH]2)c(=O)c2ccccc21` were, in that order, -1% and 0.15.
Take `CCc1ncc(NC(=O)[C@@H](C)COC)cn1`: the “% Inhibition” value is -9% and the Z score was 0.91.
As to `CN1CCN(c2nc(N3CCCCC3)nc3c2CN(S(=O)(=O)c2ccccc2)CC3)CC1`, the “% Inhibition” value was found to be 8% and the Z score was -1.05.
The like results for `C[C@H](O)c1nnnn1CC(=O)Nc1cccc(S(=O)(=O)N2CCCC2)c1` were, in that order, 3% and -0.37.
For `Cc1cc(N2CCC3(CC2)C[C@H](c2ccccc2)CN(C2CC2)C3)nc(N)n1`, in that order: -17% and 1.78.
The like results for `CC(=O)N1CCN(C(=O)CN2CCCC[C@H]2c2cc(C)n[nH]2)CC1` were, in that order, -10% and 0.99.
Consider `Cc1nc(-c2csc(S(=O)(=O)Nc3cccc(OC(F)(F)F)c3)c2)sc1C`, for which the “% Inhibition” value is listed as -14% and the Z score worked out at 2.06.
For `O=C(Nc1cncc(Cl)c1)N1CCC2(CC1)OCc1ccccc12`, the “% Inhibition” value is -3% and the Z score was determined as 0.55.
For `O[C@H]1Cc2ccccc2C12CCN(CCn1cc(Cl)cn1)CC2`, in that order: 7% and -0.62.
For `CCC1=NO[C@@H](CN2CCc3nc(C)[nH]c3C2)C1`, in that order: 8% and -1.25.
For `Cc1ccc(CN2C[C@]34C=C[C@H](O3)C(C(=O)N3CCN(C)C(=O)C3)C4C2=O)cc1C` (stereo partly specified), in that order: -7% and 0.76.
Turning to `Cc1noc(-c2ccc3c(c2)OCO3)c1C(=O)NCc1cccc(Cl)c1`, the “% Inhibition” value is recorded as -14% and the Z score is 2.25.
As for `CN(CC(F)(F)F)C(=O)CN1CC(C)(C)[C@H]1c1ccncc1`, the “% Inhibition” value turned out to be 2% and the Z score was -0.25.
The like results for `CCO[C@H]1C[C@@H](O)C12CCN(C(=O)C1(C#N)CCOCC1)CC2` were, in that order, -4% and 0.5.
For `O=C(Nc1nc2cc3c(cc2s1)OCCO3)[C@H]1CCS(=O)(=O)C1`, in that order: -4% and 0.62.
`Cc1n[nH]c(C)c1CCn1ccnc1-c1c(F)ccc(Cl)c1F`: the “% Inhibition” value was -1% and the Z score is given as 0.11.
The like results for `O=C(Nc1ccccn1)N[C@@H](CCO)C1CCCCC1` were, in that order, 4% and -0.58.
As for `CN1CCN(c2ccc(N3CCN(C)CC3)nn2)CC1`, the “% Inhibition” value came to 3% and the Z score is -0.44.
Regarding `O=C(NC1CCC2CCCC2C1)N1CCOC2(CNC2)C1` (stereo unspecified), the “% Inhibition” value is 26% and the Z score is on record as -3.29.
Take `Cc1c(CNC(N)=NCc2ccco2)oc2ccc(F)cc12`: the “% Inhibition” value was -12% and the Z score was 1.24.
With `CCCc1nc(N[C@H](C)c2cccc(OC)c2)c2cnn(C)c2n1`, the “% Inhibition” value was found to be 1% and the Z score is reported as -0.1.
As for `Cc1c([C@@H]2CC(=O)Nc3c2cnn3Cc2ccccc2Cl)cnn1C`, the “% Inhibition” value is -4% and the Z score was 0.62.
In the case of `O=C(CN(Cc1ccccc1)C(=O)c1ccccc1Cl)Nc1nc(-c2ccccc2)cn1-c1ccc(F)cc1`, the “% Inhibition” value came to 10% and the Z score is -0.97.
For `CC(C)Cc1cc(C(=O)N2CCc3[nH][nH]c(=O)c3CC2)no1`, in that order: -3% and 0.57.
With `Cc1ccc(NCc2cc(Cl)cc3c2OCOC3)c(Br)c1`, the “% Inhibition” value is reported as -1% and the Z score was found to be 0.17.
On to `CN(C(=O)c1ccc(OCC(F)(F)F)nc1)C1(C#N)CCC1`, for which the “% Inhibition” value is reported as 38% and the Z score is -5.16.
The like results for `CN([C@H]1CCc2ccccc21)S(=O)(=O)c1ccc2c(c1)CCC2` were, in that order, 36% and -0.76.
For `Nc1nc(CCNC(=O)c2conc2-c2ccccc2)n[nH]1`, in that order: -13% and 1.68.
For `CN(CCc1nccs1)Cc1cn[nH]c1`, in that order: -6% and 0.73.
On to `C[C@@H](CC(C)(C)O)OC(=O)c1ccnc(N(C)C)c1`, for which the “% Inhibition” value is -11% and the Z score is 1.65.
For `CC1(C)CC[C@H](NC(=O)CCCN2C(=O)CNC2=O)c2ccccc21`, the “% Inhibition” value was -1% and the Z score was 0.13.
For `COCCN1CCC(c2n[nH]c(CNC(=O)OCc3ccccc3)n2)CC1`, the “% Inhibition” value is -5% and the Z score was 0.69.
For `Cc1ccc(-c2csc(Cc3nc(-c4ccc(C)cc4)no3)n2)cc1`, in that order: -15% and 1.45.
For `O=C(Nc1ccccc1)C(=O)Nc1cccc2[nH]ccc12`, in that order: -9% and 0.93.
For `Cn1nccc1CNC(=O)NCC1CC12CCCc1ccccc12` (stereo unspecified), in that order: 3% and -0.45.
Take `Cc1ccc(C)c(S(=O)(=O)NC[C@@H]2C[C@H](F)CN2)c1`: the “% Inhibition” value is -9% and the Z score came out at 1.52.
The like results for `COc1cc2c(cc1OC)C(Nc1ccccc1)=NC(C)(C)C2` were, in that order, -2% and 0.38.
For `COc1ccnc(CN2CCc3[nH]nc(-c4ccc(-c5ccccc5)cc4)c3C2)c1`, in that order: 1% and -0.17.
The like results for `COc1ccccc1NS(=O)(=O)c1cc(NC(=O)c2ccc(C)c(S(=O)(=O)Nc3cccc(C)c3)c2)ccc1Cl` were, in that order, -8% and 1.27.
Consider `CCOC(=O)N1CCN([C@H]2CCCN(C3CCN(Cc4ccco4)CC3)C2)CC1`, for which the “% Inhibition” value was -17% and the Z score is given as 1.48.
For `Fc1ccccc1Nc1nc(-c2cccc(Cl)c2)c2c(n1)-c1ccccc1OC2`, in that order: -7% and 1.33.
Take `Cc1ccc(F)c(C(=O)N2CCN(C3CCOCC3)C[C@H]2C)c1`: the “% Inhibition” value is recorded as -1% and the Z score was determined as 0.15.
The like results for `CN1N=C(C(=O)Nc2cc(-c3ccccc3)on2)CCC1=O` were, in that order, -11% and 1.53.
The like results for `Cc1ccc(Cl)cc1N1CCN(C(=O)NCC2CCC2)CC1` were, in that order, -8% and 1.47.
The like results for `Fc1cc(Cl)ccc1CN1CCC(n2cncn2)CC1` were, in that order, -4% and 0.44.
In the case of `CO[C@@H](C)c1noc(CN(C)c2ccnc(N(C)C)n2)n1`, the “% Inhibition” value is -1% and the Z score is 0.1.
On to `O=C(CN1CCCCCCC1)N1CC(c2nc3ccccc3[nH]2)C1`, for which the “% Inhibition” value is recorded as -4% and the Z score is given as 0.81.
For `O=C(Nc1ccc2c(c1)OCO2)c1c(-c2ccc(Cl)cc2)nc2n1CCS2(=O)=O`, in that order: 33% and -0.56.
With `CN1C(=O)C[C@H](C(=O)NC2CC(=O)N(c3ccccc3)C2)[C@H]1c1cccnc1` (stereo partly specified), the “% Inhibition” value was -6% and the Z score came out at 1.14.
`Cc1conc1COc1ccc([C@@H]2CCC(=O)N2)cc1`: the “% Inhibition” value is listed as -8% and the Z score was 1.03.
For `Cc1cc(C)c(-n2cccn2)c([C@H]2CC(=O)Nc3[nH]nc(C4CC4)c32)c1`, in that order: 3% and -0.48.
In the case of `CC(=O)N[C@H]1[C@H](OCc2ccccc2)O[C@@H]2COC(c3ccccc3)O[C@H]2[C@@H]1OC(C)C(=O)O` (stereo partly specified), the “% Inhibition” value was found to be 29% and the Z score is reported as -3.75.
The like results for `CCCCn1nccc1N[C@H]1CCCOC1` were, in that order, -9% and 1.17.
For `CN(Cc1cccn1C)C(=O)[C@@](C)(O)CN1C(=O)NC2(CCCC2)C1=O`, in that order: -3% and 0.4.
For `Cc1cc(=O)c(C(=O)N2CCc3ccccc3C2)c(CCc2ccccc2)n1CCN(C)C`, in that order: -4% and 0.51.
As for `CC(C)=CCN1CC2(CCN(C(=O)c3c(F)cccc3F)CC2)CC1=O`, the “% Inhibition” value is given as -6% and the Z score was 0.66.
For `CN1C(=O)c2ccc(S(=O)(=O)N3CCC(C(F)F)CC3)cc2C1=O`, in that order: 1% and -0.06.
For `COc1cc(NC(=O)c2cc3n(n2)C[C@@H](c2ccc4c(c2)OCO4)OC3)c(OC)cc1Cl`, in that order: -3% and 0.58.
The like results for `CCN(C)C(=O)c1coc(CN2CCN(Cc3ccccc3)CC2)n1` were, in that order, 0% and 0.
As for `O=C(c1csc(Cl)c1)N1CCCC1CC(O)c1cccs1` (stereo unspecified), the “% Inhibition” value stood at 2% and the Z score is reported as -0.28.
Take `CN1CCN(c2nc3c(c(Oc4ccc(F)cc4)n2)CN(C(=O)Nc2cccc(Cl)c2)CC3)CC1`: the “% Inhibition” value was determined as 3% and the Z score is -0.37.
The like results for `COc1ccc(C[C@H](C)CNC(=O)c2ccon2)cc1` were, in that order, 2% and -0.23.
With `COCC1(CNCc2n[nH]c(C)c2Cl)CCC1`, the “% Inhibition” value is on record as -9% and the Z score stood at 1.84.
The like results for `Cc1ncc(CN2C[C@@H]3CCC[C@H](C2)C(=O)N3)n1C` were, in that order, -3% and 0.31.
For `CC(C)(Oc1ccc(C(F)(F)F)cc1)C(=O)N1CC(C2CS(=O)(=O)C2)C1`, in that order: -11% and 1.77.
For `Cc1cc(CS(=O)(=O)[C@@H](C)C(=O)NCc2ccccc2)no1`, in that order: 15% and -2.
`Cc1ccc(OCCn2ccc(=O)c3cccc(OC(F)(F)F)c32)cc1`: the “% Inhibition” value was -2% and the Z score came to 0.31.
For `COc1cccc(Cn2cnc(-c3ccccc3)c2-c2cccnc2)c1OC`, in that order: -2% and 0.38.
Consider `CC1CN(C(=O)C2=NN(c3ccccc3)C(=O)CN2)CC(C)O1` (stereo unspecified), for which the “% Inhibition” value was -1% and the Z score was 0.07.
The like results for `COc1ccc(NC(C)=O)cc1-n1ccnc1-c1ccc(Cl)s1` were, in that order, 5% and -0.66.
